Measured values published in the supplement of paper PMC9151546.
Most values come without repeats; read them as rough.

What was measured:
CHO-K1 [1] = assay: micronucleus frequency (% of nucleated events); higher = more micronuclei (genotoxic)
CHO-K1 [2] = assay: relative survival (nuclei to bead ratio vs DMSO control) (% of vehicle control); higher = more surviving cells
Experimental: (§1)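 Flow-cytometric in vitro micronucleus assay (Litron MicroFlow) in CHO-K1 cells in 96-well plates, 19 concentrations (4.5-200 µM, n=1 per concentration). Without S9, cells were exposed for 24 h and sampled at 48 h. With Aroclor 1254-induced rat liver S9, cells were exposed for 3-4 h and sampled at 27-28 h. Read-outs are %MN and %hypodiploid nuclei relative to nucleated events, and relative survival as the nuclei-to-bead ratio versus the 1% DMSO vehicle control (x100).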

CHO-K1 [3] = assay: hypodiploid nuclei frequency (% of nucleated events); higher = more hypodiploid events (aneugenic)
Experimental: as §1
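For hypodiploid nuclei frequency (% of nucleated events) in this document: hypodiploid nuclei gated on a flow cytometer with 488 nm excitation after SYTOX Green staining, cultures at 37 °C, positive controls vinblastine without S9 and cyclophosphamide with S9.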
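For micronucleus frequency (% of nucleated events) in this document: cells lysed with nuclei stained by SYTOX Green, then micronucleus-gated events counted against nucleated events by flow cytometry with 488 nm excitation.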
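For relative survival (nuclei to bead ratio vs DMSO control) in this document: Lysed-cell nuclei stained with SYTOX Green and counted against counting beads by flow cytometry at 488 nm excitation, with vinblastine (no S9) and cyclophosphamide (plus S9) as positive controls.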

OCCNCCO [Diethanolamine]
Conditions | hypodiploid nuclei frequency, CHO-K1 [3] [%] | micronucleus frequency, CHO-K1 [1] [%] | relative survival, CHO-K1 [2]
concentration: 4.5 (µM), S9 metabolic activation: with S9, exposure time: 3-4 hours | 0.2 | 1.72 | 80.8
concentration: 4.5 (µM), S9 metabolic activation: without S9, exposure time: 24 hours | 0.72 | 1.58 | 99.4
concentration: 5.63 (µM), S9 metabolic activation: with S9, exposure time: 3-4 hours | 0.38 | 2.24 | 70.7
concentration: 5.63 (µM), S9 metabolic activation: without S9, exposure time: 24 hours | 0.68 | 2.92 | 88.2
concentration: 7.04 (µM), S9 metabolic activation: with S9, exposure time: 3-4 hours | 0.3 | 1.46 | 69
concentration: 7.04 (µM), S9 metabolic activation: without S9, exposure time: 24 hours | 1.1 | 3.3 | 93.1
concentration: 8.8 (µM), S9 metabolic activation: with S9, exposure time: 3-4 hours | 0.24 | 0.78 | 86.2
concentration: 8.8 (µM), S9 metabolic activation: without S9, exposure time: 24 hours | 1 | 2.08 | 66.9
concentration: 11 (µM), S9 metabolic activation: with S9, exposure time: 3-4 hours | 0.18 | 1.58 | 73.5
concentration: 11 (µM), S9 metabolic activation: without S9, exposure time: 24 hours | 1.08 | 3.1 | 68.5
concentration: 13.7 (µM), S9 metabolic activation: with S9, exposure time: 3-4 hours | 0.26 | 1.74 | 81.9
concentration: 13.7 (µM), S9 metabolic activation: without S9, exposure time: 24 hours | 0.54 | 1.58 | 73.5
concentration: 17.2 (µM), S9 metabolic activation: with S9, exposure time: 3-4 hours | 0.3 | 1.64 | 95.9
concentration: 17.2 (µM), S9 metabolic activation: without S9, exposure time: 24 hours | 1.34 | 3.3 | 65.7
concentration: 21.5 (µM), S9 metabolic activation: with S9, exposure time: 3-4 hours | 0.3 | 1.82 | 95.9
concentration: 21.5 (µM), S9 metabolic activation: without S9, exposure time: 24 hours | 0.82 | 2.38 | 73.1
concentration: 26.8 (µM), S9 metabolic activation: with S9, exposure time: 3-4 hours | 0.1 | 1 | 77
concentration: 26.8 (µM), S9 metabolic activation: without S9, exposure time: 24 hours | 0.52 | 1.6 | 109
concentration: 33.6 (µM), S9 metabolic activation: with S9, exposure time: 3-4 hours | 0.22 | 1.6 | 121
concentration: 33.6 (µM), S9 metabolic activation: without S9, exposure time: 24 hours | 0.74 | 1.98 | 94.5
concentration: 41.9 (µM), S9 metabolic activation: with S9, exposure time: 3-4 hours | 0.38 | 2.24 | 99.9
concentration: 41.9 (µM), S9 metabolic activation: without S9, exposure time: 24 hours | 0.88 | 1.74 | 105
concentration: 52.4 (µM), S9 metabolic activation: with S9, exposure time: 3-4 hours | 0.28 | 1.84 | 78.9
concentration: 52.4 (µM), S9 metabolic activation: without S9, exposure time: 24 hours | 0.78 | 1.96 | 108
concentration: 65.5 (µM), S9 metabolic activation: with S9, exposure time: 3-4 hours | 0.28 | 2.14 | 84.5
concentration: 65.5 (µM), S9 metabolic activation: without S9, exposure time: 24 hours | 1.28 | 2.16 | 93.5
concentration: 81.9 (µM), S9 metabolic activation: with S9, exposure time: 3-4 hours | 0.42 | 1.78 | 96.6
concentration: 81.9 (µM), S9 metabolic activation: without S9, exposure time: 24 hours | 1.34 | 2.22 | 98.2
concentration: 102 (µM), S9 metabolic activation: with S9, exposure time: 3-4 hours | 0.2 | 1.94 | 79.1
concentration: 102 (µM), S9 metabolic activation: without S9, exposure time: 24 hours | 1.56 | 2.06 | 87.3
concentration: 128 (µM), S9 metabolic activation: with S9, exposure time: 3-4 hours | 0.18 | 1.72 | 92.4
concentration: 128 (µM), S9 metabolic activation: without S9, exposure time: 24 hours | 1.48 | 2.1 | 99.4
concentration: 160 (µM), S9 metabolic activation: with S9, exposure time: 3-4 hours | 0.26 | 2.14 | 111
concentration: 160 (µM), S9 metabolic activation: without S9, exposure time: 24 hours | 2.18 | 2.48 | 94.2
concentration: 200 (µM), S9 metabolic activation: with S9, exposure time: 3-4 hours | 0.26 | 1.8 | 156
concentration: 200 (µM), S9 metabolic activation: without S9, exposure time: 24 hours | 2.12 | 2.68 | 85.5

c1ccc(/N=N/c2ccccc2)cc1 [Azobenzene]
Conditions | hypodiploid nuclei frequency, CHO-K1 [3] [%] | micronucleus frequency, CHO-K1 [1] [%] | relative survival, CHO-K1 [2]
concentration: 4.5 (µM), S9 metabolic activation: with S9, exposure time: 3-4 hours | 0.18 | 1.92 | 112
concentration: 4.5 (µM), S9 metabolic activation: without S9, exposure time: 24 hours | 1.08 | 1.88 | 117
concentration: 5.63 (µM), S9 metabolic activation: with S9, exposure time: 3-4 hours | 0.5 | 2.72 | 101
concentration: 5.63 (µM), S9 metabolic activation: without S9, exposure time: 24 hours | 0.7 | 2.42 | 105
concentration: 7.04 (µM), S9 metabolic activation: with S9, exposure time: 3-4 hours | 0.32 | 2.34 | 95.3
concentration: 7.04 (µM), S9 metabolic activation: without S9, exposure time: 24 hours | 0.76 | 2.34 | 101
concentration: 8.8 (µM), S9 metabolic activation: with S9, exposure time: 3-4 hours | 0.34 | 2.06 | 96.4
concentration: 8.8 (µM), S9 metabolic activation: without S9, exposure time: 24 hours | 1.16 | 2.66 | 81.6
concentration: 11 (µM), S9 metabolic activation: with S9, exposure time: 3-4 hours | 0.24 | 1.34 | 116
concentration: 11 (µM), S9 metabolic activation: without S9, exposure time: 24 hours | 0.86 | 2.58 | 112
concentration: 13.7 (µM), S9 metabolic activation: with S9, exposure time: 3-4 hours | 0.36 | 1.9 | 121
concentration: 13.7 (µM), S9 metabolic activation: without S9, exposure time: 24 hours | 0.7 | 2.1 | 97.8
concentration: 17.2 (µM), S9 metabolic activation: with S9, exposure time: 3-4 hours | 0.22 | 1.92 | 100
concentration: 17.2 (µM), S9 metabolic activation: without S9, exposure time: 24 hours | 0.9 | 2.28 | 110
concentration: 21.5 (µM), S9 metabolic activation: with S9, exposure time: 3-4 hours | 0.34 | 1.84 | 93
concentration: 21.5 (µM), S9 metabolic activation: without S9, exposure time: 24 hours | 1.1 | 3.42 | 106
concentration: 26.8 (µM), S9 metabolic activation: with S9, exposure time: 3-4 hours | 0.26 | 2.34 | 118
concentration: 26.8 (µM), S9 metabolic activation: without S9, exposure time: 24 hours | 1.22 | 2.18 | 97.4
concentration: 33.6 (µM), S9 metabolic activation: with S9, exposure time: 3-4 hours | 0.28 | 2.76 | 86.8
concentration: 33.6 (µM), S9 metabolic activation: without S9, exposure time: 24 hours | 1.18 | 1.76 | 110
concentration: 41.9 (µM), S9 metabolic activation: with S9, exposure time: 3-4 hours | 0.66 | 3.56 | 83.7
concentration: 41.9 (µM), S9 metabolic activation: without S9, exposure time: 24 hours | 0.86 | 1.88 | 114
concentration: 52.4 (µM), S9 metabolic activation: with S9, exposure time: 3-4 hours | 1.01 | 6.27 | 54.7
concentration: 52.4 (µM), S9 metabolic activation: without S9, exposure time: 24 hours | 1.04 | 1.88 | 124
concentration: 65.5 (µM), S9 metabolic activation: with S9, exposure time: 3-4 hours | – | – | 37.5
concentration: 65.5 (µM), S9 metabolic activation: without S9, exposure time: 24 hours | 1.12 | 1.9 | 110
concentration: 81.9 (µM), S9 metabolic activation: with S9, exposure time: 3-4 hours | – | – | 32.5
concentration: 81.9 (µM), S9 metabolic activation: without S9, exposure time: 24 hours | 1.48 | 1.88 | 94.7
concentration: 102 (µM), S9 metabolic activation: with S9, exposure time: 3-4 hours | – | – | 24.3
concentration: 102 (µM), S9 metabolic activation: without S9, exposure time: 24 hours | 1.36 | 2.42 | 91.3
concentration: 128 (µM), S9 metabolic activation: with S9, exposure time: 3-4 hours | – | – | 20.3
concentration: 128 (µM), S9 metabolic activation: without S9, exposure time: 24 hours | 1.88 | 2.32 | 95.1
concentration: 160 (µM), S9 metabolic activation: with S9, exposure time: 3-4 hours | – | – | 20.5
concentration: 160 (µM), S9 metabolic activation: without S9, exposure time: 24 hours | 2.02 | 2.4 | 127
concentration: 200 (µM), S9 metabolic activation: with S9, exposure time: 3-4 hours | – | – | 4.95
concentration: 200 (µM), S9 metabolic activation: without S9, exposure time: 24 hours | 2.66 | 2.38 | 88.2
